# Source: PMC7819943, “Rice protein-binding microarrays: a tool to detect cis-acting elements near promoter regions in rice”
# This is one part of the list.
# Target: T1, OsWOX13 (Oryza sativa, UniProt Q5QMM3 1-267)
# T1 sequence: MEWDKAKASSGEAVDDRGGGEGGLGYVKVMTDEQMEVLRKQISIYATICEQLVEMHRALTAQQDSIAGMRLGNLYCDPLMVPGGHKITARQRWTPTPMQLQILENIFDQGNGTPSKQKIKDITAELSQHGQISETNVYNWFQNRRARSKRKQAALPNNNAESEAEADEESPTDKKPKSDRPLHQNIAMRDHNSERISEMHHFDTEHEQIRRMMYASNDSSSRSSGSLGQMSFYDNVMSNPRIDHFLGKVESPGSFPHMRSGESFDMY
# Assay: protein-binding microarray (RPBM); PBS, 2% BSA, 51.3 ng/ul salmon testes DNA, 50 uM zinc acetate, 200 nM TF, 25 C, 1 h; high values mean tight binding
# Settings: protein: recombinant; tags: N-terminal polyhistidine and DsRed monomer fusion (pET32a); label: CyDye5-dUTP incorporated in the synthesized complementary strand; 3' TTTTT single-stranded linker to array surface; dsDNA, one strand shown
# In short: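 Ni–NTA purification followed expression in E. coli BL21-CodonPlus of transcription factors fused N-terminally to a polyhistidine tag and DsRed. At 200 nM in PBS with 2% BSA, salmon testes DNA and 50 µM zinc acetate, the protein was incubated for 1 h at 25 °C with a custom Agilent array that had been primer-extended with Cy5-dUTP and blocked with 2% BSA. After washing, the array was read on an Axon 4000B scanner. The binding signal is per-feature fluorescence intensity in arbitrary units.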
row,Sequence,binding signal
1,CTTCATTAGTGATTAGTTGAAATGTAGATCAGAATTACCTCGGAGTCACCTAGTGCAG,8550 fluorescence intensity (a.u.)
2,GTTTAATTTGTGATCCATGATAGTGAGAGTCGATTTGTGACGGAGTCACCTAGTGCAG,19000 fluorescence intensity (a.u.)
3,CTACTATCAATCGACCAATTCCAATCTCATCGTTACAGGACGGAGTCACCTAGTGCAG,4190 fluorescence intensity (a.u.)
4,TTATTGTGATAACTGCCATTGATAAGGACAGAGAAGTTAGCGGAGTCACCTAGTGCAG,3160 fluorescence intensity (a.u.)
5,CCTAATTAATCCATAATTAGAGAATGTTTACTGTAACATCCGGAGTCACCTAGTGCAG,50600 fluorescence intensity (a.u.)
6,TGAAAGAAAATTAATTATCTACTTCATTCGCTCGGATACTCGGAGTCACCTAGTGCAG,18800 fluorescence intensity (a.u.)
7,GCAATAATTGCTAACCGTGCCGTTCTTATTCCCCAATCATCGGAGTCACCTAGTGCAG,46100 fluorescence intensity (a.u.)
8,AAGAGATGATGACGATAACTGTGGAAGTGGCAGACTGGCACGGAGTCACCTAGTGCAG,8880 fluorescence intensity (a.u.)
9,GATTAATTAGGTTTAATAAATTCGTCTCGCAGTTACAAGGCGGAGTCACCTAGTGCAG,35200 fluorescence intensity (a.u.)
10,AATAAATCATTACAACCAGTAAATGTGATGTCAATAGATGCGGAGTCACCTAGTGCAG,11900 fluorescence intensity (a.u.)
11,ATTAATTAAAATCCAGCTGTAAGGTAAGGCCATTCCAAGCCGGAGTCACCTAGTGCAG,15500 fluorescence intensity (a.u.)
12,CACGTTAAAATTGAAAGTTTAATTGAAATTGAAACGATATCGGAGTCACCTAGTGCAG,7700 fluorescence intensity (a.u.)
13,CACTATCATATTGGGTAATTAACTTGGGTAAACTTCATCGCGGAGTCACCTAGTGCAG,6120 fluorescence intensity (a.u.)
14,AATAATTATATTGTGAGTAAGCTGAAATAAGAAACTACGTCGGAGTCACCTAGTGCAG,27300 fluorescence intensity (a.u.)
15,ACTAACTAATTGTGAATATCTCATTCTCACCGATGCTAAACGGAGTCACCTAGTGCAG,21400 fluorescence intensity (a.u.)
16,AAACAAATAGACATGATAGATTAATATGAAATATGTCATTCGGAGTCACCTAGTGCAG,23800 fluorescence intensity (a.u.)
17,AAGTACAATTTGTGTAATTGATAATTCGAGGAGTATTAGGCGGAGTCACCTAGTGCAG,29700 fluorescence intensity (a.u.)
18,AACCACAATAATCACACACTGATTCCACCGCCGGCTTCTCCGGAGTCACCTAGTGCAG,4530 fluorescence intensity (a.u.)
19,GGATAAAATTAGAATTGATGACCACCATATACTATAAGGGCGGAGTCACCTAGTGCAG,15200 fluorescence intensity (a.u.)
20,CGAAGATTGAGTCCTTTGAAGCCGAGCTCTCCATGGCCATCGGAGTCACCTAGTGCAG,17100 fluorescence intensity (a.u.)
21,AACCAATTTAGCCGATAATTCGGCTAGTCATTCCATAATACGGAGTCACCTAGTGCAG,7620 fluorescence intensity (a.u.)

row,Sequence,binding signal
1,ACTAAAATTTTGATATTACTAAATTTTGGAAAGATTTATTCGGAGTCACCTAGTGCAG,3970 fluorescence intensity (a.u.)
2,TACAAATTTGCAGTCAGAAGACTTAGCAACAAAGTACTGCCGGAGTCACCTAGTGCAG,10300 fluorescence intensity (a.u.)
3,TCCAACACTCAATCAGAAAAGCGAGCCCTGGGCCTTGTTGCGGAGTCACCTAGTGCAG,4820 fluorescence intensity (a.u.)
4,AAGTACACATGATTGAGTTGTCGCGGTATATACCTCCTCCCGGAGTCACCTAGTGCAG,15600 fluorescence intensity (a.u.)
5,GCCCTGGCCAATTGAGCCCAATCAAGATAGTTCGGCCCATCGGAGTCACCTAGTGCAG,3400 fluorescence intensity (a.u.)
6,GCACTAACATAACTGATTAACTGGAATACTGGATCTCTATCGGAGTCACCTAGTGCAG,25800 fluorescence intensity (a.u.)
7,AATCGAAGATTGACGCCGGCAGCCAAAGTTGGAGAAGACACGGAGTCACCTAGTGCAG,4760 fluorescence intensity (a.u.)
8,CCAAGTTAGCAGTTGGCAGTTGATTGGCACGTCGGTCAAACGGAGTCACCTAGTGCAG,8380 fluorescence intensity (a.u.)
9,GACGTCTTGATTGGGAGATTAGCCTTGGCCGCGTGGAATCCGGAGTCACCTAGTGCAG,41200 fluorescence intensity (a.u.)
10,CCTTAATTGTGGGGCTGACTGCTATTTTCTATATCATGTGCGGAGTCACCTAGTGCAG,56000 fluorescence intensity (a.u.)
11,CCAGACTGCCTAACTGTACAGTCACGGCGCCATCTCGGACCGGAGTCACCTAGTGCAG,4820 fluorescence intensity (a.u.)
12,CACCATAAATTATCGCGTACTCAGTTCATACCACAAGATACGGAGTCACCTAGTGCAG,7400 fluorescence intensity (a.u.)
13,AATAAGTCCATGATTAGCTGTAAGTGCTACAGTAACCCACCGGAGTCACCTAGTGCAG,9230 fluorescence intensity (a.u.)
14,ATTGTAACATAATTATCACTCCTAGGTTTATTTTCAAGCACGGAGTCACCTAGTGCAG,23500 fluorescence intensity (a.u.)
15,CAATAGGGAATAATTAACACCTTACTGTAAATGACAGTTGCGGAGTCACCTAGTGCAG,5230 fluorescence intensity (a.u.)
16,TAAAGATATGAAGATTGTTGATTGCTGAAGTTTATGAAAGCGGAGTCACCTAGTGCAG,4870 fluorescence intensity (a.u.)
17,GGTTGTTAATTAGAATAGATGGGACCTGAAAGCTTCAGCTCGGAGTCACCTAGTGCAG,31300 fluorescence intensity (a.u.)
18,TTTCAATCCGATTGGCGACGGGCGCCGAGGGATTTAGCGCCGGAGTCACCTAGTGCAG,3250 fluorescence intensity (a.u.)
19,GGAGGGAGGGAGTATCAATCATTTGAAGAGTTCAGTGACACGGAGTCACCTAGTGCAG,8040 fluorescence intensity (a.u.)
20,TAATATTTATAATTAGTGTCCAAACATCCGATGTGATAGGCGGAGTCACCTAGTGCAG,5870 fluorescence intensity (a.u.)
21,GTCTAAATGGTTTCAAACAAATAATTAAGAAGGACATCTACGGAGTCACCTAGTGCAG,4200 fluorescence intensity (a.u.)
